# PubChem BioAssay AID1476 (National Center for Advancing Translational Sciences (NCATS), 2009)
# Among all 200,000 compounds or so, about 4,500 (2.2%) were called active. Inconclusive means that the source gave no clear call. Such entries were picked first, then a sample of the others. The call rests on the fitted dose curve; in most records, active means well fitted inhibition curve with a large enough effect; inconclusive means small, poorly fitted or top-dose-only effect, or effect the other way; inactive means flat fitted curve, though single readings scatter. A potency beside an inconclusive call is a rough fit, not a confirmed value.
# Biological target: Cruzipain (Trypanosoma cruzi) (UniProt P25779)
# Assay: qHTS Assay for Promiscuous and Specific Inhibitors of Cruzain (without detergent); further: nearly all actives have a fitted effect of over 40% in size;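 on max response, negative = inhibition: plate controls were enzyme without inhibitor for no effect and buffer without enzyme for full effect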
# Details: purified cruzain, Z-FR-AMC fluorescence, no detergent
# Outline: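 Purified cruzain at 1.5 nM, pre-incubated 15 min with compound at room temperature in 100 mM sodium acetate pH 5.5, 5 mM DTT, 0.00005% Triton X-100. Reaction started with 2 uM Z-FR-AMC; AMC fluorescence increase over 60 s gives rate.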
# Potency means the concentration at half of the fitted maximal effect; tags describe the fitted curve by direction and shape.
# Sequence of UniProt P25779 (P25779 whole entry, looked up): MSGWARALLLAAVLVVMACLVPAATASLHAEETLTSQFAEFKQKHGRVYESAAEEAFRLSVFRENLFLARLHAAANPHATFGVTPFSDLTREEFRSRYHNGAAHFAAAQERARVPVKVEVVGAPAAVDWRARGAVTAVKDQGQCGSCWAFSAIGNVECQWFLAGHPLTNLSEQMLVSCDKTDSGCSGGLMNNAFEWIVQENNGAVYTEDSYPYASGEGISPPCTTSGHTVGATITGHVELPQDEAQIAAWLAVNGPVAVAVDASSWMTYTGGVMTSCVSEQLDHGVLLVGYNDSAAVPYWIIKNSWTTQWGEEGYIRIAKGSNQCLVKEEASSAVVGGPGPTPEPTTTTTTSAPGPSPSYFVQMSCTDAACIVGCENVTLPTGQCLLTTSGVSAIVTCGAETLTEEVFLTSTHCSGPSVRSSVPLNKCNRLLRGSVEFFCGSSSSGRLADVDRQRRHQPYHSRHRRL
SMILES,"max response, negative = inhibition",Potency
OB(O)c1ccc(Br)cc1,inactive: -1.31%,–
COc1ccc(Cl)cc1NC(=O)CC(C)=O,inactive: -6%,–
CCOC(=O)c1cc2c(ccn2C)n1CC(=O)N1CCN(c2cccc(C(F)(F)F)c2)CC1,–,"inconclusive: 7.94 µM [activator, partial curve]"
C[C@H]1C2=C3C(CC[C@H]4C(OCc5ccc(F)cc5C(F)(F)F)OC[C@](C)([C@@H]34)N(C(=O)OC(C)(C)C)C2)C2COC(=O)OCC21 (stereo partly drawn),–,"inconclusive: 39.8 µM [activator, single point]"
CC(C)N(C(=O)COC(=O)CNC(=O)c1ccc(Br)cc1)c1ccccc1,–,active: 15.8 µM
CCOC(=O)Cn1c(=NC(=O)c2cccs2)sc2cc(C(=O)OC)ccc21,–,"inconclusive: 31.6 µM [inhibitor, single point]"
CN(CCc1ccc(Cl)c(Cl)c1)[C@H]1CCCC[C@H]1N1CCCC1,inactive: -0.284%,–
O=C1OC(c2ccccc2)=N/C1=C\C=C\c1ccccc1[N+](=O)[O-],–,active: 15.8 µM
O=c1cc(CN2CCN(c3ccc(F)cc3)CC2)c2cc3c(cc2o1)CCCC3,–,"inconclusive: 3.98 µM [inhibitor, partial curve]"
COc1ccccc1C(=O)Nc1cc(Cl)ccc1O,–,"inconclusive: 31.6 µM [inhibitor, single point]"
CCn1c(SCC(=O)Nc2nc3ccc(OC)cc3s2)nc2c1c(=O)n(C)c(=O)n2C,–,"inconclusive: 20 µM [activator, partial curve]"
COC(=O)c1ccc(NC(=O)c2cc3sccc3n2C)cc1,–,"inconclusive: 31.6 µM [inhibitor, single point]"
O=C(CNC(c1ccccc1)c1ccccc1)Nc1cc([N+](=O)[O-])ccc1Cl,–,active: 25.1 µM
O=[N+]([O-])c1ccc(O)c(-c2nc(-c3ccccc3)c(-c3cccs3)[nH]2)c1,–,"inconclusive: 25.1 µM [inhibitor, single point]"
O=C(CSc1ncc2c(n1)-c1ccccc1N(Cc1ccc(Cl)cc1)S2(=O)=O)c1ccc(Cl)cc1,–,active: 20 µM
C=CCN1C(=O)C(O)(CC(=O)c2ccc(-n3cccc3)cc2)c2ccccc21 (stereo not drawn),–,"inconclusive: 7.94 µM [inhibitor, partial curve]"
COc1cccc(Nc2nc(NCC3CCCO3)c3ccccc3n2)c1 (stereo not drawn),–,active: 12.6 µM
O=C(c1ccc(S(=O)(=O)N2CCC(c3nc4ccccc4s3)CC2)cc1)N1CCOCC1,–,"inconclusive: 25.1 µM [activator, single point]"
COc1ccccc1NC(=O)C1=C(C)NC(SCC(=O)c2ccccc2)=C(C#N)C1c1ccco1 (stereo not drawn),–,active: 15.8 µM
COc1ccc(Cl)cc1S(=O)(=O)N1CCN(C(=O)c2cc(OC)c(OC)c(OC)c2)CC1,inconclusive: 105% [activator],–
O=C(c1cccs1)n1nc(-c2ccc(Cl)cc2)nc1NCc1ccco1,–,"inconclusive: 31.6 µM [inhibitor, single point]"

SMILES,"max response, negative = inhibition",Potency
CCCCCCC(c1c(C)n(C)n(-c2ccccc2)c1=O)c1c(C)n(C)n(-c2ccccc2)c1=O,–,"inconclusive: 25.1 µM [activator, single point]"
C[C@H](NC(=O)c1ccccc1Cl)C(=O)OCC(=O)N1CC2(C)CC1CC(C)(C)C2 (stereo partly drawn),–,"inconclusive: 39.8 µM [inhibitor, single point]"
Cc1cc(SCC(=O)OCC(=O)N2CCN(C(=O)c3ccco3)CC2)c(C)cc1Br,–,"inconclusive: 31.6 µM [activator, single point]"
Cc1cccc(C(=O)Nc2ccc(O)c3c(=O)cc(-c4ccccc4Cl)oc23)c1,–,"inconclusive: 39.8 µM [inhibitor, single point]"
COc1ccc(C2C(C(C)=O)=C(C)N=c3s/c(=C\c4ccco4)c(=O)n32)c(OC)c1 (stereo not drawn),–,"inconclusive: 39.8 µM [activator, single point]"
CCOC(=O)c1cc(CC)sc1NC(=O)c1cc(OC)c(OC)c(OC)c1,–,"inconclusive: 25.1 µM [activator, single point]"
Cc1ccc(C(C(=O)NCc2ccco2)N(C(=O)CNC(=O)c2cccs2)c2c(C)cccc2C)cc1 (stereo not drawn),–,"inconclusive: 39.8 µM [inhibitor, single point]"
CCC1=C(c2ccc(C)cc2)S(=O)(=O)N=C1N1CCC(C(=O)Nc2ccccc2C(=O)OC)CC1,inactive: -6.61%,–
CN(C)c1ccc(C(CNC(=O)c2ccc(C(C)(C)C)cc2)N2CCCC2)cc1 (stereo not drawn),inactive: 11.5%,–
Cc1cn2c(=O)cc(COc3ccc(NC(=O)c4ccc(C(C)(C)C)cc4)cc3)nc2s1,inactive: -0.678%,–
Cc1cccc(OCC(=O)Nc2ccc(S(=O)(=O)N3CCCC3)cc2)c1,–,"inconclusive: 20 µM [inhibitor, single point]"
CCN(C(=O)c1sc2nc3n(c(=O)c2c1C)CCCC3)c1ccccc1F,inactive: 4.44%,–
C=CCN1C(=O)/C(=C/c2cccs2)S/C1=N\S(=O)(=O)c1ccc(F)cc1,–,"inconclusive: 39.8 µM [inhibitor, single point]"
Cc1cc(O)c(C(c2ccccc2)N2CCC(C)CC2)c(=O)n1Cc1ccco1 (stereo not drawn),–,"inconclusive: 39.8 µM [inhibitor, single point]"
O=C(O)c1ccc(CSc2nnc(SCc3ccccc3)s2)cc1,–,"inconclusive: 39.8 µM [inhibitor, single point]"
COc1ccc(N2CCN(C(=O)c3ccc(N4C(=O)NC5CC4(C)Oc4ccccc45)cc3)CC2)cc1 (stereo not drawn),–,"inconclusive: 31.6 µM [activator, partial curve]"
CS(=O)(=O)Nc1nc2n(n1)C(c1ccccc1)C=C(c1ccc(Br)cc1)N2 (stereo not drawn),–,"inconclusive: 39.8 µM [activator, single point]"
CC(=O)c1sc2c(c1C)c(=O)n(-c1ccc(Cl)cc1)c(=O)n2Cc1cc(=O)n2cc(Cl)ccc2n1,inactive: 7.34%,–
CCOc1ccccc1C1C2C(=O)N(c3ccccc3)C(=O)C2ON1c1ccccc1 (stereo not drawn),–,"inconclusive: 31.6 µM [inhibitor, single point]"
c1ccc(C2OC3c4cccc5cccc(c45)C3N2c2ccccc2)cc1 (stereo not drawn),–,"inconclusive: 31.6 µM [inhibitor, single point]"
COC(=O)c1ccc(OCC2c3cc(OC)c(OC)cc3CCN2C(=O)C2CC2)cc1 (stereo not drawn),–,"inconclusive: 25.1 µM [activator, single point]"

SMILES,"max response, negative = inhibition",Potency
CCCCOc1ccc(OC(=O)c2sc3ncn(Cc4cccc(F)c4)c(=O)c3c2C)cc1,inactive: 9.53%,–
COc1cc(CN(C(=O)COc2ccc(Br)cc2)c2ccccn2)cc(OC)c1OC,–,"inconclusive: 39.8 µM [activator, single point]"
O=C(Nc1ccccc1Cl)N1CCN(c2ccc3nnc(-c4ccccc4)n3n2)CC1,–,"inconclusive: 31.6 µM [activator, single point]"
O=c1[nH]c(-c2ccc(F)cc2)nc2c1sc(=S)n2-c1ccccc1,–,"inconclusive: 39.8 µM [inhibitor, single point]"
COc1ccc(-c2noc(-c3ccccc3C(=O)Nc3cccnc3)n2)cc1OC,–,"inconclusive: 39.8 µM [activator, single point]"
CCc1ccc(C2=CC(c3cc(Br)ccc3F)n3ncnc3N2)cc1 (stereo not drawn),–,"inconclusive: 39.8 µM [inhibitor, single point]"
COc1cc(C(=O)NCC(c2ccc(N(C)C)cc2)N2CCc3ccccc32)cc(OC)c1OC (stereo not drawn),–,"inconclusive: 39.8 µM [activator, single point]"
COc1cc(OC)cc(-c2nc3nc(C)c(CCC(=O)O)c(C)n3n2)c1,–,"inconclusive: 31.6 µM [activator, single point]"
Cc1ccc(CN2C(=O)c3ccccc3Sc3ccc(C(=O)NC4CCCCC4)cc32)cc1,–,"inconclusive: 39.8 µM [inhibitor, single point]"
COc1ccc(-c2oc3ncn4nc(-c5cccc(C)c5)nc4c3c2-c2ccc(OC)cc2)cc1,inactive: -5.16%,–
O=C(c1ccc(Cl)cc1)[C@@H]1[C@@H]2C(=O)N(c3ccccc3)C(=O)[C@@H]2C2c3ccccc3C=NN21 (stereo partly drawn),–,"inconclusive: 39.8 µM [inhibitor, single point]"
COc1cc2c(cc1OC)[C@@H]1C(=O)c3ccc4c(c3OC1CO2)CC(C(C)C)O4 (stereo partly drawn),–,"inconclusive: 39.8 µM [activator, single point]"
CC(C)CC(=O)Nc1cc(C(F)(F)F)ccc1N1CCOCC1,inactive: -0.397%,–
Cc1ccccc1Cn1nc(C)c(NC(=O)c2cc3n(n2)C(C(F)F)CC(C(F)F)N3)c1C (stereo not drawn),–,"inconclusive: 7.94 µM [activator, single point]"
CCCCCn1c(=NC(C)=O)c(C#N)cc2c(=O)n3ccccc3nc21,inactive: 11%,–
Cc1nn(Cc2ccc(Cl)cc2)c(C)c1NC(=O)c1c(-c2ccccc2)noc1C,–,"inconclusive: 25.1 µM [activator, single point]"
Cc1cccc2c1N(CCCOc1ccccc1)C(=O)C2=O,–,"inconclusive: 39.8 µM [activator, single point]"
CCn1c(=N)c(C(=O)NC)cc2c(=O)n3cccc(C)c3nc21,–,"inconclusive: 39.8 µM [inhibitor, single point]"
O=C(CCNC(=O)Cn1ccc2ccccc2c1=O)NCCc1ccccc1Cl,–,"inconclusive: 39.8 µM [inhibitor, single point]"
CCC1CN(C(=O)NCc2ccc(C)cc2)c2cc(C)ccc2O1 (stereo not drawn),–,"inconclusive: 31.6 µM [inhibitor, single point]"
COC(=O)c1sc2ccccc2c1-n1cccc1C(=O)C(=O)Nc1ccc(C)cc1,–,"inconclusive: 31.6 µM [inhibitor, single point]"
